# Experimental data as given in the supplement of paper PMC8728848.
# This is one part of the list.
# B1: SJA (Sophora japonica) (protein)
# chain: FLGLFNSGGYSSSYQIVAVEFDTYINEWDPKTRHIGIDINSINSTKTVTWGWENGEVAIVLISYKAATETLTVSLTYPSSQTSYILSAAVDLKSILPEWVRIGF
# Experiments:
# Assay in all cases: glycan array binding signal (z-score within array); higher = stronger binding
# Details in all cases: glycan notation: IUPAC condensed, linker removed
# [1] = biological target: Gal(b1-4)GlcNAc(b1-3)Gal(b1-3)GlcNAc
# In short: (§1)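 Glycan array data came from 3228 arrays in the Consortium for Functional Glycomics database, and only arrays with an available protein sequence were kept. Glycan names were put into IUPAC-condensed notation, and columns mapping to the same glycan were averaged. The binding signal is a within-array Z-score, averaged across arrays of one protein sequence run at different concentrations or buffers and across linkers. A negative Z-score can be read as non-binding.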
# [2] = biological target: Gal(b1-4)GlcNAc(b1-3)Gal(b1-4)Glc
# In short: as §1
# [3] = biological target: Gal(b1-4)GlcNAc(b1-3)Gal(b1-4)GlcNAc
# In short: as §1
# [4] = biological target: Gal(b1-4)GlcNAc(b1-3)Gal(b1-4)GlcNAc(b1-2)Man(a1-3)[Gal(b1-4)GlcNAc(b1-3)Gal(b1-4)GlcNAc(b1-2)Man(a1-6)]Man(b1-4)GlcNAc(b1-4)GlcNAc
# In short: as §1
# [5] = biological target: Gal(b1-4)GlcNAc(b1-3)Gal(b1-4)GlcNAc(b1-2)Man(a1-3)[Gal(b1-4)GlcNAc(b1-3)Gal(b1-4)GlcNAc(b1-2)Man(a1-6)]Man(b1-4)GlcNAc(b1-4)[Fuc(a1-6)]GlcNAc
# In short: as §1
# [6] = biological target: Gal(b1-4)GlcNAc(b1-3)Gal(b1-4)GlcNAc(b1-2)[Gal(b1-4)GlcNAc(b1-3)Gal(b1-4)GlcNAc(b1-6)]Man(a1-6)[Gal(b1-4)GlcNAc(b1-3)Gal(b1-4)GlcNAc(b1-2)Man(a1-3)]Man(b1-4)GlcNAc(b1-4)GlcNAc
# In short: as §1
# [7] = biological target: Gal(b1-4)GlcNAc(b1-3)Gal(b1-4)GlcNAc(b1-2)[Gal(b1-4)GlcNAc(b1-3)Gal(b1-4)GlcNAc(b1-6)]Man(a1-6)[Gal(b1-4)GlcNAc(b1-3)Gal(b1-4)GlcNAc(b1-2)Man(a1-3)]Man(b1-4)GlcNAc(b1-4)[Fuc(a1-6)]GlcNAc
# In short: as §1
# [8] = biological target: Gal(b1-4)GlcNAc(b1-3)Gal(b1-4)GlcNAc(b1-3)Gal(b1-4)GlcNAc
# In short: as §1
# [9] = biological target: Gal(b1-4)GlcNAc(b1-3)Gal(b1-4)GlcNAc(b1-3)Gal(b1-4)GlcNAc(b1-2)Man(a1-3)[Gal(b1-4)GlcNAc(b1-3)Gal(b1-4)GlcNAc(b1-3)Gal(b1-4)GlcNAc(b1-2)Man(a1-6)]Man(b1-4)GlcNAc(b1-4)GlcNAc
# In short: as §1
# [10] = biological target: Gal(b1-4)GlcNAc(b1-3)Gal(b1-4)GlcNAc(b1-3)Gal(b1-4)GlcNAc(b1-2)Man(a1-3)[Gal(b1-4)GlcNAc(b1-3)Gal(b1-4)GlcNAc(b1-3)Gal(b1-4)GlcNAc(b1-2)Man(a1-6)]Man(b1-4)GlcNAc(b1-4)[Fuc(a1-6)]GlcNAc
# In short: as §1
# [11] = biological target: Gal(b1-4)GlcNAc(b1-3)Gal(b1-4)GlcNAc(b1-3)Gal(b1-4)GlcNAc(b1-2)[Gal(b1-4)GlcNAc(b1-3)Gal(b1-4)GlcNAc(b1-3)Gal(b1-4)GlcNAc(b1-6)]Man(a1-6)[Gal(b1-4)GlcNAc(b1-3)Gal(b1-4)GlcNAc(b1-3)Gal(b1-4)GlcNAc(b1-2)Man(a1-3)]Man(b1-4)GlcNAc(b1-4)[Fuc(a1-6)]GlcNAc
# In short: as §1
# [12] = biological target: Gal(b1-4)GlcNAc(b1-3)Gal(b1-4)GlcNAc(b1-3)Gal(b1-4)GlcNAc(b1-3)Gal(b1-4)GlcNAc(b1-2)Man(a1-3)[Gal(b1-4)GlcNAc(b1-3)Gal(b1-4)GlcNAc(b1-3)Gal(b1-4)GlcNAc(b1-3)Gal(b1-4)GlcNAc(b1-2)Man(a1-6)]Man(b1-4)GlcNAc(b1-4)GlcNAc
# In short: as §1
# [13] = biological target: Gal(b1-4)GlcNAc(b1-3)Gal(b1-4)GlcNAc(b1-3)Gal(b1-4)GlcNAc(b1-3)Gal(b1-4)GlcNAc(b1-2)Man(a1-3)[Gal(b1-4)GlcNAc(b1-3)Gal(b1-4)GlcNAc(b1-3)Gal(b1-4)GlcNAc(b1-3)Gal(b1-4)GlcNAc(b1-2)Man(a1-6)]Man(b1-4)GlcNAc(b1-4)[Fuc(a1-6)]GlcNAc
# In short: as §1
# [14] = biological target: Gal(b1-4)GlcNAc(b1-3)Gal(b1-4)GlcNAc(b1-3)Gal(b1-4)GlcNAc(b1-3)Gal(b1-4)GlcNAc(b1-2)[Gal(b1-4)GlcNAc(b1-3)Gal(b1-4)GlcNAc(b1-3)Gal(b1-4)GlcNAc(b1-3)Gal(b1-4)GlcNAc(b1-6)]Man(a1-6)[Gal(b1-4)GlcNAc(b1-3)Gal(b1-4)GlcNAc(b1-3)Gal(b1-4)GlcNAc(b1-3)Gal(b1-4)GlcNAc(b1-2)Man(a1-3)]Man(b1-4)GlcNAc(b1-4)[Fuc(a1-6)]GlcNAc
# In short: as §1
# [15] = biological target: Gal(b1-4)GlcNAc(b1-3)Gal(b1-4)GlcNAc(b1-3)Gal(b1-4)GlcNAc(b1-3)Gal(b1-4)GlcNAc(b1-3)Gal(b1-4)GlcNAc(b1-2)Man(a1-3)[Gal(b1-4)GlcNAc(b1-3)Gal(b1-4)GlcNAc(b1-3)Gal(b1-4)GlcNAc(b1-3)Gal(b1-4)GlcNAc(b1-3)Gal(b1-4)GlcNAc(b1-2)Man(a1-6)]Man(b1-4)GlcNAc(b1-4)GlcNAc
# In short: as §1
# [16] = biological target: Gal(b1-4)GlcNAc(b1-3)Gal(b1-4)GlcNAc(b1-3)Gal(b1-4)GlcNAc(b1-3)Gal(b1-4)GlcNAc(b1-3)Gal(b1-4)GlcNAc(b1-2)Man(a1-3)[Gal(b1-4)GlcNAc(b1-3)Gal(b1-4)GlcNAc(b1-3)Gal(b1-4)GlcNAc(b1-3)Gal(b1-4)GlcNAc(b1-3)Gal(b1-4)GlcNAc(b1-2)Man(a1-6)]Man(b1-4)GlcNAc(b1-4)[Fuc(a1-6)]GlcNAc
# In short: as §1
# [17] = biological target: Gal(b1-4)GlcNAc(b1-3)Gal(b1-4)GlcNAc(b1-3)Gal(b1-4)GlcNAc(b1-3)Gal(b1-4)GlcNAc(b1-3)Gal(b1-4)GlcNAc(b1-2)[Gal(b1-4)GlcNAc(b1-3)Gal(b1-4)GlcNAc(b1-3)Gal(b1-4)GlcNAc(b1-3)Gal(b1-4)GlcNAc(b1-3)Gal(b1-4)GlcNAc(b1-6)]Man(a1-6)[Gal(b1-4)GlcNAc(b1-3)Gal(b1-4)GlcNAc(b1-3)Gal(b1-4)GlcNAc(b1-3)Gal(b1-4)GlcNAc(b1-3)Gal(b1-4)GlcNAc(b1-2)Man(a1-3)]Man(b1-4)GlcNAc(b1-4)[Fuc(a1-6)]GlcNAc
# In short: as §1
# [18] = biological target: Gal(b1-4)GlcNAc(b1-3)Gal(b1-4)GlcNAc(b1-3)Gal(b1-4)GlcNAc(b1-3)Gal(b1-4)GlcNAc(b1-3)Gal(b1-4)GlcNAc(b1-3)Gal(b1-4)GlcNAc(b1-2)Man(a1-3)[Gal(b1-4)GlcNAc(b1-3)Gal(b1-4)GlcNAc(b1-3)Gal(b1-4)GlcNAc(b1-3)Gal(b1-4)GlcNAc(b1-3)Gal(b1-4)GlcNAc(b1-3)Gal(b1-4)GlcNAc(b1-2)Man(a1-6)]Man(b1-4)GlcNAc(b1-4)GlcNAc
# In short: as §1
# [19] = biological target: Gal(b1-4)GlcNAc(b1-3)Gal(b1-4)GlcNAc(b1-3)GalNAc
# In short: as §1
# [20] = biological target: Gal(b1-4)GlcNAc(b1-3)Gal(b1-4)GlcNAc(b1-3)[Gal(b1-4)GlcNAc(b1-3)Gal(b1-4)GlcNAc(b1-6)]GalNAc
# In short: as §1
# [21] = biological target: Gal(b1-4)GlcNAc(b1-3)Gal(b1-4)GlcNAc(b1-6)[Gal(b1-3)]GalNAc
# In short: as §1
# [22] = biological target: Gal(b1-4)GlcNAc(b1-3)Gal(b1-4)[Fuc(a1-3)]GlcNAc(b1-3)Gal(b1-4)[Fuc(a1-3)]GlcNAc
# In short: as §1
binder,measurement,setting,value
B1,glycan array binding signal (z-score),[1],-0.192
same,glycan array binding signal (z-score),[2],-0.14
same,glycan array binding signal (z-score),[3],-0.148
same,glycan array binding signal (z-score),[4],1.95
same,glycan array binding signal (z-score),[5],0.728
same,glycan array binding signal (z-score),[6],-0.225
same,glycan array binding signal (z-score),[7],1.17
same,glycan array binding signal (z-score),[8],-0.123
same,glycan array binding signal (z-score),[9],2.39
same,glycan array binding signal (z-score),[10],1.03
same,glycan array binding signal (z-score),[11],2.16
same,glycan array binding signal (z-score),[12],1.27
same,glycan array binding signal (z-score),[13],1.91
same,glycan array binding signal (z-score),[14],1.36
same,glycan array binding signal (z-score),[15],1.84
same,glycan array binding signal (z-score),[16],1.49
same,glycan array binding signal (z-score),[17],2.24
same,glycan array binding signal (z-score),[18],0.358
same,glycan array binding signal (z-score),[19],0.349
same,glycan array binding signal (z-score),[20],1.24
same,glycan array binding signal (z-score),[21],0.875
same,glycan array binding signal (z-score),[22],-0.071
